This note sets out measurements from paper PMC11995724, “Antibiotic target discovery by integrated phenotypic and activity-based profiling of electrophilic fragments” (Cell chemical biology, 2025).

SMILES strings stand for the structures. Screen size: about 3,200 compounds; about 75 (2%) showed an effect of 50% or more. This is one part of the list.

In the test the test system is T1, S. aureus MSSA476.
T1 construct: MSSA476
Details: species or system S. aureus MSSA476 (TSB) or V. cholerae SAD30 (LB); 384-well bacterial growth screen at 25 uM, OD600 relative to DMSO control. The following applies: relative growth, OD600, TSB; 25 µM; inhibitor.
Take `COc1cc([N+](=O)[O-])ccc1NC(=O)CCl` [4-O07, 2-chloro-N-(2-methoxy-4-nitrophenyl)acetamide]: the “% of control remaining” value was found to be 81.9438%.
Regarding `C=CC(=O)Nc1ccc(-c2noc(C)n2)cc1` [1-K16, N-[4-(5-methyl-1,2,4-oxadiazol-3-yl)phenyl]prop-2-enamide], the “% of control remaining” value was found to be 113.231%.
In the case of `O=C(CCl)NC(c1ccccc1)C1CC1` (centres unmarked) [5-L16, 2-chloro-N-[cyclopropyl(phenyl)methyl]acetamide], the “% of control remaining” value came out at 94.3534%.
As to `C=CC(=O)NC1(c2ccc(C(F)(F)F)cc2)CCCC1` [2-E04, N-{1-[4-(trifluoromethyl)phenyl]cyclopentyl}prop-2-enamide], the “% of control remaining” value came to 93.2985%.
For the compound `COc1ccc(NC(=O)C(C#N)=Cc2c(Cl)nc3ccccn23)cc1` [9-G09, 3-{2-chloroimidazo[1,2-a]pyridin-3-yl}-2-cyano-N-(4-methoxyphenyl)prop-2-enamide], the “% of control remaining” value is 101.273%.
With `COc1ccc(C=C(C#N)C(=O)Nc2ccccc2)cc1` [8-A05, 2-cyano-3-(4-methoxyphenyl)-N-phenylprop-2-enamide], the “% of control remaining” value is listed as 112.863%.
For the compound `O=C(CCl)COc1ccc(Cl)cc1` [10-M17, 1-chloro-3-(4-chlorophenoxy)propan-2-one], the “% of control remaining” value was 105.938%.
Turning to `C=CC(=O)N1CCOC(c2cccc(OC)c2)C1` (centres unmarked) [3-E09, 1-[2-(3-methoxyphenyl)morpholin-4-yl]prop-2-en-1-one], the “% of control remaining” value is listed as 102.743%.
As to `Cc1[nH]c2ccccc2c1C=C(C#N)C(=O)NCc1ccccc1` [8-D16, N-benzyl-2-cyano-3-(2-methyl-1H-indol-3-yl)prop-2-enamide], the “% of control remaining” value was determined as 104.564%.
For `CC(C)CN(C(=O)CCl)C1CC1` [5-D14, 2-chloro-N-cyclopropyl-N-(2-methylpropyl)acetamide], the “% of control remaining” value is on record as 116.94%.
The figure for `N#CC(=Cc1ccc2c(c1)OCCO2)C(=O)Nc1nccs1` [8-B03, 2-cyano-3-(2,3-dihydro-1,4-benzodioxin-6-yl)-N-(1,3-thiazol-2-yl)prop-2-enamide] is 113.527%.
As for `O=C(CCl)Nc1ccc(SC(F)F)cc1` [4-B10, 2-chloro-N-{4-[(difluoromethyl)sulfanyl]phenyl}acetamide], the “% of control remaining” value is on record as 108.623%.
For `O=C(CCl)N[C@H]1C[C@H](c2ccccc2)C1` [7-D12, 2-chloro-N-[(1r,3r)-3-phenylcyclobutyl]acetamide], the “% of control remaining” value was determined as 107.692%.
Turning to `COC(=O)c1cccc(C(=O)CCl)c1` [10-I11, methyl 3-(2-chloroacetyl)benzoate], the “% of control remaining” value turned out to be 61.5625%.
As for `O=C1C=CC(=O)N1CCc1ccccc1` [10-E20, 1-(2-phenylethyl)-2,5-dihydro-1H-pyrrole-2,5-dione], the “% of control remaining” value was determined as 58.4375%.
For the compound `NC(=O)CCc1ccc(C(=O)CCl)cc1` [10-I03, 3-[4-(2-chloroacetyl)phenyl]propanamide], the “% of control remaining” value amounted to 108.125%.
Consider `C=CC(=O)N1CCCN(C(=O)c2ccc(OC)cc2)CC1` [3-A21, 1-[4-(4-methoxybenzoyl)-1,4-diazepan-1-yl]prop-2-en-1-one], for which the “% of control remaining” value is given as 128.864%.
The figure for `C=CC(=O)Nc1cnn(-c2ccccc2C)c1C(F)F` [1-E22, N-[5-(difluoromethyl)-1-(2-methylphenyl)-1H-pyrazol-4-yl]prop-2-enamide] is 86.5055%.
For `C=CC(=O)N(Cc1cccc(Cl)c1F)C(C)C1CCOCC1` (centres unmarked) [1-F04, N-[(3-chloro-2-fluorophenyl)methyl]-N-[1-(oxan-4-yl)ethyl]prop-2-enamide], the “% of control remaining” value is recorded as 86.8571%.
In the case of `C=CC(=O)N1CCN(C(=O)c2cc(C)no2)CC1` [1-N19, 1-[4-(3-methyl-1,2-oxazole-5-carbonyl)piperazin-1-yl]prop-2-en-1-one] it was 125.538%; in that of `C=CC(=O)N1CCC(C(=O)NC(C)(C)c2ccc(F)c(F)c2)CC1` [1-L04, N-[2-(3,4-difluorophenyl)propan-2-yl]-1-(prop-2-enoyl)piperidine-4-carboxamide], 119.912%.
For the compound `CS(=O)(=O)c1ccc(CNC(=O)CCl)cc1` [6-O12, 2-chloro-N-[(4-methanesulfonylphenyl)methyl]acetamide], the “% of control remaining” value is recorded as 89.8049%.
For `O=C(CCl)NCc1coc(Cl)n1` [6-B04, 2-chloro-N-[(2-chloro-1,3-oxazol-4-yl)methyl]acetamide], the “% of control remaining” value is 94.5854%.
In the case of `CC(Cl)C(=O)N(C)CCOc1ccc(Cl)cc1` (centres unmarked) [6-C12, 2-chloro-N-[2-(4-chlorophenoxy)ethyl]-N-methylpropanamide], the “% of control remaining” value came out at 89.122%.
The figure for `O=C(CCl)Nc1cccc(Oc2ccccc2)c1` [4-P19, 2-chloro-N-(3-phenoxyphenyl)acetamide] is 90.7099%; for `C=CC(=O)NCc1cnoc1C` [3-C22, N-[(5-methyl-1,2-oxazol-4-yl)methyl]prop-2-enamide] it is 129.212%.
Take `CC1CN(C(=O)C(C#N)=Cc2ccc(OC(F)F)cc2)CC(C)O1` (centres unmarked) [8-G05, 3-[4-(difluoromethoxy)phenyl]-2-(2,6-dimethylmorpholine-4-carbonyl)prop-2-enenitrile]: the “% of control remaining” value came to 108.216%.
`O=C(CCl)N(CC=Cc1ccccc1)c1ccc2c(c1)OCCO2` [4-G19, 2-chloro-N-(2,3-dihydro-1,4-benzodioxin-6-yl)-N-(3-phenylprop-2-en-1-yl)acetamide]: the “% of control remaining” value came to 103.287%.
On to `C=CC(=O)NCC1CCc2cccnc21` (centres unmarked) [3-M07, N-({5H,6H,7H-cyclopenta[b]pyridin-7-yl}methyl)prop-2-enamide], for which the “% of control remaining” value was 96.1254%.
For the compound `Cc1nc(C#N)c(N2CCN(C(=O)CCl)CC2)o1` [5-L18, 5-[4-(2-chloroacetyl)piperazin-1-yl]-2-methyl-1,3-oxazole-4-carbonitrile], the “% of control remaining” value is recorded as 84.8816%.
For `N#CC(=Cc1ccc2ccccc2c1)C(=O)NCc1ccccc1` [9-N11, N-benzyl-2-cyano-3-(naphthalen-2-yl)prop-2-enamide], the “% of control remaining” value came to 104.27%.
In the case of `C=CC(=O)N1CCC(C(=O)N2CCOc3cc(F)ccc3C2)CC1` [3-E06, 1-[4-(8-fluoro-2,3,4,5-tetrahydro-1,4-benzoxazepine-4-carbonyl)piperidin-1-yl]prop-2-en-1-one] it was 97.1702%.
As for `O=C(CCl)NCC1(c2ccc(F)cc2)CCCC1` [6-E18, 2-chloro-N-{[1-(4-fluorophenyl)cyclopentyl]methyl}acetamide], the “% of control remaining” value came to 85.7073%.
As to `CC1CN(C(=O)c2ccc(NC(=O)C(C)Cl)cc2)CC(C)O1` (centres unmarked) [7-E22, 2-chloro-N-[4-(2,6-dimethylmorpholine-4-carbonyl)phenyl]propanamide], the “% of control remaining” value came to 77.237%.
For the compound `O=C(CCl)N(Cc1ccccc1)Cc1ccc(F)cc1` [5-I06, N-benzyl-2-chloro-N-[(4-fluorophenyl)methyl]acetamide], the “% of control remaining” value was found to be 104.554%.
On to `CC(c1cccc(NC(=O)c2ccccc2)c1)N(C)C(=O)CCl` (centres unmarked) [6-M22, N-{3-[1-(2-chloro-N-methylacetamido)ethyl]phenyl}benzamide], for which the “% of control remaining” value stood at 92.5366%.
On to `CC(Cl)C(=O)NCCS(=O)(=O)c1cccs1` (centres unmarked) [6-N15, 2-chloro-N-[2-(thiophene-2-sulfonyl)ethyl]propanamide], for which the “% of control remaining” value came to 91.5122%.
For the compound `C=CC(=O)NCc1nnc(C(F)(F)F)s1` [1-O14, N-{[5-(trifluoromethyl)-1,3,4-thiadiazol-2-yl]methyl}prop-2-enamide], the “% of control remaining” value is 112.879%.
With `COc1ccc(C(=O)C(C)Cl)c(OC)c1` (centres unmarked) [10-J17, 2-chloro-1-(2,4-dimethoxyphenyl)propan-1-one], the “% of control remaining” value stood at 124.688%.
In the case of `C=CC(=O)NCC1(C)CCC(C)(C)CC1` [1-F22, N-[(1,4,4-trimethylcyclohexyl)methyl]prop-2-enamide], the “% of control remaining” value was 112.527%.
In the case of `COc1ccc(C=C(C#N)C(=O)Nc2ccc3c(c2)OCCO3)cc1O` [8-H19, 2-cyano-N-(2,3-dihydro-1,4-benzodioxin-6-yl)-3-(3-hydroxy-4-methoxyphenyl)prop-2-enamide], the “% of control remaining” value came out at 102.905%.
`O=C(CCl)Nc1c(Cl)cc(Cl)cc1Cl` [5-B16, 2-chloro-N-(2,4,6-trichlorophenyl)acetamide]: the “% of control remaining” value turned out to be 90.7104%.
As for `C=CC(=O)NC1CCc2nc(CC)nn2C1` (centres unmarked) [1-G22, N-{2-ethyl-5H,6H,7H,8H-[1,2,4]triazolo[1,5-a]pyridin-6-yl}prop-2-enamide], the “% of control remaining” value is given as 95.6484%.
Turning to `C=CC(=O)NCc1nc2ccccc2n1C1CC1` [2-N03, N-[(1-cyclopropyl-1H-1,3-benzodiazol-2-yl)methyl]prop-2-enamide], the “% of control remaining” value amounted to 88.7728%.
In the case of `C=CC(=O)N(Cc1c(F)cc(C)cc1Cl)C1CCCOCC1` (centres unmarked) [2-A13, N-[(2-chloro-6-fluoro-4-methylphenyl)methyl]-N-(oxepan-4-yl)prop-2-enamide], the “% of control remaining” value came out at 130.2%.
As for `CC(Cl)C(=O)N1CCC(Oc2cnc3ccccc3n2)CC1` (centres unmarked) [7-I18, 2-chloro-1-[4-(quinoxalin-2-yloxy)piperidin-1-yl]propan-1-one], the “% of control remaining” value is on record as 105.181%.
For `N#CC(=Cc1ccsc1)C(=O)Nc1ccc(Cl)cc1` [9-I06, N-(4-chlorophenyl)-2-cyano-3-(thiophen-3-yl)prop-2-enamide], the “% of control remaining” value is recorded as 81.1985%.
